Assay results as given in the supplement of paper PMC8728848.
Some of the results follow.

What was measured:
Assay in all cases: glycan array binding signal (z-score within array); higher = stronger binding
Conditions in all cases: glycan notation: IUPAC condensed, linker removed
[1] = biological target: Fuc(a1-2)Gal
Procedure, shortened: (§1)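 Columns mapping to the same glycan were averaged after glycan names were converted to IUPAC-condensed notation. The data come from 3228 arrays in the Consortium for Functional Glycomics database, limited to those with an available protein sequence. Binding is reported as a within-array Z-score averaged across arrays of one protein sequence and across linkers.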

[2] = biological target: Fuc(a1-2)Gal(b1-3)GalNAc
Procedure, shortened: as §1

[3] = biological target: Fuc(a1-2)Gal(b1-3)GalNAc(a1-3)[Fuc(a1-2)]Gal(b1-4)Glc
Procedure, shortened: as §1

[4] = biological target: Fuc(a1-2)Gal(b1-3)GalNAc(a1-3)[Fuc(a1-2)]Gal(b1-4)GlcNAc
Procedure, shortened: as §1

[5] = biological target: Fuc(a1-2)Gal(b1-3)GalNAc(b1-3)Gal
Procedure, shortened: as §1

[6] = biological target: Fuc(a1-2)Gal(b1-3)GalNAc(b1-3)Gal(a1-4)Gal(b1-4)Glc
Procedure, shortened: as §1

[7] = biological target: Fuc(a1-2)Gal(b1-3)GalNAc(b1-4)[Neu5Ac(a2-3)]Gal(b1-4)Glc
Procedure, shortened: as §1

[8] = biological target: Fuc(a1-2)Gal(b1-3)GlcNAc
Procedure, shortened: as §1

[9] = biological target: Fuc(a1-2)Gal(b1-3)GlcNAc(b1-2)Man(a1-3)[Fuc(a1-2)Gal(b1-3)GlcNAc(b1-2)Man(a1-6)]Man(b1-4)GlcNAc(b1-4)GlcNAc
Procedure, shortened: as §1

[10] = biological target: Fuc(a1-2)Gal(b1-3)GlcNAc(b1-3)Gal(b1-4)Glc
Procedure, shortened: as §1

[11] = biological target: Fuc(a1-2)Gal(b1-3)GlcNAc(b1-3)[Fuc(a1-3)[Gal(b1-4)]GlcNAc(b1-6)]Gal(b1-4)Glc
Procedure, shortened: as §1

[12] = biological target: Fuc(a1-2)Gal(b1-3)[Fuc(a1-4)]GlcNAc
Procedure, shortened: as §1

[13] = biological target: Fuc(a1-2)Gal(b1-3)[Fuc(a1-4)]GlcNAc(b1-2)Man(a1-3)[Fuc(a1-2)Gal(b1-3)[Fuc(a1-4)]GlcNAc(b1-2)Man(a1-6)]Man(b1-4)GlcNAc(b1-4)GlcNAc
Procedure, shortened: as §1

[14] = biological target: Fuc(a1-2)Gal(b1-3)[Fuc(a1-4)]GlcNAc(b1-3)[Fuc(a1-3)[Gal(b1-4)]GlcNAc(b1-6)]Gal(b1-4)Glc
Procedure, shortened: as §1

[15] = biological target: Fuc(a1-2)Gal(b1-3)[Fuc(a1-4)]GlcNAc(b1-3)[Gal(b1-4)GlcNAc(b1-6)]Gal(b1-4)Glc
Procedure, shortened: as §1

[16] = biological target: Fuc(a1-2)Gal(b1-4)Glc
Procedure, shortened: as §1

[17] = biological target: Fuc(a1-2)Gal(b1-4)Glc6S
Procedure, shortened: as §1

[18] = biological target: Fuc(a1-2)Gal(b1-4)GlcNAc
Procedure, shortened: as §1

[19] = biological target: Fuc(a1-2)Gal(b1-4)GlcNAc(b1-2)Man(a1-3)[Fuc(a1-2)Gal(b1-4)GlcNAc(b1-2)Man(a1-6)]Man(b1-4)GlcNAc(b1-4)GlcNAc
Procedure, shortened: as §1

[20] = biological target: Fuc(a1-2)Gal(b1-4)GlcNAc(b1-3)Gal(b1-4)GlcNAc
Procedure, shortened: as §1

[21] = biological target: Fuc(a1-2)Gal(b1-4)GlcNAc(b1-3)Gal(b1-4)GlcNAc(b1-3)Gal(b1-4)GlcNAc
Procedure, shortened: as §1

[22] = biological target: Fuc(a1-2)Gal(b1-4)GlcNAc(b1-3)GalNAc
Procedure, shortened: as §1

[23] = biological target: Fuc(a1-2)Gal(b1-4)GlcNAc6S
Procedure, shortened: as §1

[24] = biological target: Fuc(a1-2)Gal(b1-4)[Fuc(a1-3)]GlcNAc
Procedure, shortened: as §1

[25] = biological target: Fuc(a1-2)Gal(b1-4)[Fuc(a1-3)]GlcNAc(b1-2)Man(a1-3)[Fuc(a1-2)Gal(b1-4)[Fuc(a1-3)]GlcNAc(b1-2)Man(a1-6)]Man(b1-4)GlcNAc(b1-4)GlcNAc
Procedure, shortened: as §1

[26] = biological target: Fuc(a1-2)Gal(b1-4)[Fuc(a1-3)]GlcNAc(b1-3)Gal(b1-4)[Fuc(a1-3)]GlcNAc
Procedure, shortened: as §1

[27] = biological target: Fuc(a1-2)Gal(b1-4)[Fuc(a1-3)]GlcNAc(b1-3)Gal(b1-4)[Fuc(a1-3)]GlcNAc(b1-3)Gal(b1-4)[Fuc(a1-3)]GlcNAc
Procedure, shortened: as §1

[28] = biological target: Fuc(a1-2)Gal6S(b1-4)Glc
Procedure, shortened: as §1

[29] = biological target: Fuc(a1-2)Gal6S(b1-4)Glc6S
Procedure, shortened: as §1

[30] = biological target: Fuc(a1-2)Gal6S(b1-4)GlcNAc
Procedure, shortened: as §1

[31] = biological target: Fuc(a1-2)[Gal(a1-3)]Gal
Procedure, shortened: as §1

[32] = biological target: Fuc(a1-2)[Gal(a1-3)]Gal(b1-3)GlcNAc
Procedure, shortened: as §1

[33] = biological target: Fuc(a1-2)[Gal(a1-3)]Gal(b1-3)GlcNAc(b1-2)Man(a1-3)[Fuc(a1-2)[Gal(a1-3)]Gal(b1-3)GlcNAc(b1-2)Man(a1-6)]Man(b1-4)GlcNAc(b1-4)GlcNAc
Procedure, shortened: as §1

[34] = biological target: Fuc(a1-2)[Gal(a1-3)]Gal(b1-4)Glc
Procedure, shortened: as §1

[35] = biological target: Fuc(a1-2)[Gal(a1-3)]Gal(b1-4)GlcNAc
Procedure, shortened: as §1

[36] = biological target: Fuc(a1-2)[Gal(a1-3)]Gal(b1-4)GlcNAc(b1-2)Man(a1-3)[Fuc(a1-2)[Gal(a1-3)]Gal(b1-4)GlcNAc(b1-2)Man(a1-6)]Man(b1-4)GlcNAc(b1-4)GlcNAc
Procedure, shortened: as §1

[37] = biological target: Fuc(a1-2)[Gal(a1-3)]Gal(b1-4)[Fuc(a1-3)]GlcNAc
Procedure, shortened: as §1

[38] = biological target: Fuc(a1-2)[Gal(a1-4)]Gal(b1-4)GlcNAc
Procedure, shortened: as §1

[39] = biological target: Fuc(a1-2)[GalNAc(a1-3)]Gal
Procedure, shortened: as §1

[40] = biological target: Fuc(a1-2)[GalNAc(a1-3)]Gal(b1-3)GalNAc(a1-3)[Fuc(a1-2)]Gal(b1-4)GlcNAc
Procedure, shortened: as §1

[41] = biological target: Fuc(a1-2)[GalNAc(a1-3)]Gal(b1-3)GlcNAc
Procedure, shortened: as §1

[42] = biological target: Fuc(a1-2)[GalNAc(a1-3)]Gal(b1-3)GlcNAc(b1-2)Man(a1-3)[Fuc(a1-2)[GalNAc(a1-3)]Gal(b1-3)GlcNAc(b1-2)Man(a1-6)]Man(b1-4)GlcNAc(b1-4)GlcNAc
Procedure, shortened: as §1

[43] = biological target: Fuc(a1-2)[GalNAc(a1-3)]Gal(b1-4)Glc
Procedure, shortened: as §1

[44] = biological target: Fuc(a1-2)[GalNAc(a1-3)]Gal(b1-4)GlcNAc
Procedure, shortened: as §1

[45] = biological target: Fuc(a1-2)[GalNAc(a1-3)]Gal(b1-4)GlcNAc(b1-2)Man(a1-3)[Fuc(a1-2)[GalNAc(a1-3)]Gal(b1-4)GlcNAc(b1-2)Man(a1-6)]Man(b1-4)GlcNAc(b1-4)GlcNAc
Procedure, shortened: as §1

B1: GH98CBM51-1 (Streptococcus pneumoniae) (protein)
chain: MTYLSDMDWSSATHGDIDKTKTVQKDAPFTTGNKGEHTKISLLTSDDKVKYFDKGIGTVADSPSVISYDISGQGFEKFETYIGIDQSANSSRSDHAVVDRIEIEIDGKVVYSSSVTNPEGFRYNTQAQFISVTIPQNAKKISLKSFAGEHTWGDEVVFADAKLIKTVST
- glycan array binding signal (z-score) [1]: -0.186
- glycan array binding signal (z-score) [2]: -0.19
- glycan array binding signal (z-score) [3]: -0.189
- glycan array binding signal (z-score) [4]: 0.247
- glycan array binding signal (z-score) [5]: -0.187
- glycan array binding signal (z-score) [6]: -0.161
- glycan array binding signal (z-score) [7]: -0.187
- glycan array binding signal (z-score) [8]: -0.174
- glycan array binding signal (z-score) [9]: -0.18
- glycan array binding signal (z-score) [10]: -0.191
- glycan array binding signal (z-score) [11]: -0.185
- glycan array binding signal (z-score) [12]: -0.189
- glycan array binding signal (z-score) [13]: -0.107
- glycan array binding signal (z-score) [14]: -0.192
- glycan array binding signal (z-score) [15]: -0.19
- glycan array binding signal (z-score) [16]: -0.193
- glycan array binding signal (z-score) [17]: -0.182
- glycan array binding signal (z-score) [18]: -0.191
- glycan array binding signal (z-score) [19]: -0.193
- glycan array binding signal (z-score) [20]: -0.193
- glycan array binding signal (z-score) [21]: -0.19
- glycan array binding signal (z-score) [22]: -0.194
- glycan array binding signal (z-score) [23]: -0.194
- glycan array binding signal (z-score) [24]: -0.192
- glycan array binding signal (z-score) [25]: -0.174
- glycan array binding signal (z-score) [26]: -0.196
- glycan array binding signal (z-score) [27]: -0.178
- glycan array binding signal (z-score) [28]: -0.185
- glycan array binding signal (z-score) [29]: -0.177
- glycan array binding signal (z-score) [30]: -0.194
- glycan array binding signal (z-score) [31]: 5.96
- glycan array binding signal (z-score) [32]: -0.179
- glycan array binding signal (z-score) [33]: -0.129
- glycan array binding signal (z-score) [34]: 3.09
- glycan array binding signal (z-score) [35]: 5.12
- glycan array binding signal (z-score) [36]: 8.05
- glycan array binding signal (z-score) [37]: 0.606
- glycan array binding signal (z-score) [38]: -0.186
- glycan array binding signal (z-score) [39]: 4.76
- glycan array binding signal (z-score) [40]: 0.133
- glycan array binding signal (z-score) [41]: -0.141
- glycan array binding signal (z-score) [42]: -0.122
- glycan array binding signal (z-score) [43]: 4.09
- glycan array binding signal (z-score) [44]: 5.07
- glycan array binding signal (z-score) [45]: 5.04
